In the RNAGym collection of RNA variant scans (doi:10.1073/pnas.2313332121):
Variants at the floor of the assay are shown more often than the library holds them.

B1: TPR 5TU (parent)
chain: GGAUCUUCUCGAUCUAACAAAAAAGACAAAUCUGCCACAAAGCUUGAGAGCAUCUUCGGAUGCAGAGGCGGCAGCCUUCGGUGGCGCGAUAGCGCCAACGUUCUCAACUAUGACACGCAAAACGCGUGCUCCGUUGAAUGGAGUUUAUCAUG

Variants of: B1
Experiment: polymerase ribozyme fitness, log enrichment relative to wild type (log ratio); higher = more active; in vitro selection for triplet polymerase activity
Summary of the method: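 In triplicate, a single round of in vitro selection was run on each mutant library, PCR-built and transcribed, covering one subunit of a heterodimeric triplet polymerase ribozyme. Frozen incubation at −7 °C followed annealing with a biotinylated primer, partner subunit and triplets, and extended constructs were then gel-excised, streptavidin-captured and taken through RT-PCR. Fitness is the logarithm of genotype enrichment over wild-type enrichment, from inverse-variance-weighted replicate averages of Illumina-sequenced inputs and outputs. […] only genotypes with ≥10 input reads and ≥1 read per output were kept.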
With GGAUCUUCUCGAUCUAACAAAAAAGACAAAUCUGCCACAAAGCUUGAGAGCAUCUUCGGAUGCAGAGGCGGCAGCUGUCGUUGGCGCGAUAACGCCAACGUUCUCAACUAUGACACGCAAAAAGCGUGCUCCGUUGAAUGGAGUUUAUCAUG the “polymerase ribozyme fitness (log ratio)” value was at most -4.2. For GGAUCUUCUCGAUCUAACAAAAAAGACAAAUCUGCCACAAAGCUUGAGAGCAUCUUCGGAUGCAGAGGCGGCAGCUUUCGGUGGCGCGAUAGCGCCAACGUUCUCAACUAUGACAGGCAAAACGCGUGCUCCGUUGAAUGGAGUUUAUCAUG, the “polymerase ribozyme fitness (log ratio)” value was 0.541. With GGAUCUUCUCGAUCUAACAAAAAAGACAAAUCUGCCACAAAGCUUGAGAGCAUCUUCGGAUGCAGAGGCGGCAGCUUUCGGUGGCGCGAUAGCGCCAACGUUCUCAACUAUGACACGCAAAACGCGUGCUCCGUUAAAUAGAGUUUAUCAUG the “polymerase ribozyme fitness (log ratio)” value was at most -4.2. In the case of GGAUCUUCUCGAUCUAACAAAAAAGACAAAUCUGCCACAAAGCUUGAGAGCAUCUUCGGAUGCAGAGGCGGCAGCCAUCGGUUGCGCGAUAGCGCCAACGUUCUCAACUAUGACACGCAAAACGCGUGCUCCGUUGAAUGGAGCUUAUCAUG, the “polymerase ribozyme fitness (log ratio)” value is reported as at most -4.2. For GGAUCUUCUCGAUCUAACAAAAAAGACAAAUCUGCCACAAAGCUUGAGAGCAUCUUCGGAUGCAGAGGCGGCAGCCAUCGGUCGCGCGAUAGCGCCAACGUUCCCAACUAUGACACGCAAAAUGCGUGCUCCGUUGAAUGGAGUCUAUCAUG, the “polymerase ribozyme fitness (log ratio)” value was at most -4.2. For GGAUCUUCUCGAUCUAACAAAAAAGACAAAUCUGCCACAAAGCUUGAGAGCAUCUUCGGAUGCAGAGGCGGCAGCCAUCGGUGGCGCGAUAGAGCCAACGUUCUCAACUAUGACAAGCAAAACGCGUGCUCCGUUGAAUGGAGUUUAUUAUG, the “polymerase ribozyme fitness (log ratio)” value was at most -4.2. For GGAUCUUCUCGAUCUAACAAAAAAGACAAAUCUGCCACAAAGCUUGAGAGCAUCUUCGGAUGCAGAGGCGGCAGCUUUCGGUGGCGCUAUAGCGCCAACGUUCUCAACUAUGACACGGAAAACCCGUGCUCCGUUGAAUGGAGUUUAUAAUG, the “polymerase ribozyme fitness (log ratio)” value was at most -4.2. With GGAUCUUCUCGAUCUAACAAAAAAGACAAAUCUGCCACAAAGCUUGAGAGCAUCUUCGGAUGCAGAGGCGGCAGCCAUCGGUGGCGUGAUAGCGCCAACGUUCUCAACUAUGACACGCAAAACGCGUGCUCCGUUGAAUGGAGUUUAUCAUG the “polymerase ribozyme fitness (log ratio)” value was at most -4.2. In the case of GGAUCUUCUCGAUCUAACAAAAAAGACAAAUCUGCCACAAAGCUUGAGAGCAUCUUCGGAUGCAGAGGCGGCAGCCAUCGGUGGCGCGAUAGCGCCAUCGUUCUCAACUAUGACACGUAAAACGCGUGCUCCGUUGAAUGGAGUUUAUCAUG, the “polymerase ribozyme fitness (log ratio)” value is reported as at most -4.2. In the case of GGAUCUUCUCGAUCUAACAAAAAAGACAAAUCUGCCACAAAGCUUGAGAGCAUCUUCGGAUGCAGAGGCGGCAGCCAUCGGUGUCGCGAUCGCCCCAAGGUUCUCAACUAUGACACGCAAAACGCGUGCUCCGUUGAAUGCAGUUUAUCAUG, the “polymerase ribozyme fitness (log ratio)” value is reported as at most -4.2. For GGAUCUUCUCGAUCUAACAAAAAAGACAAAUCUGCCACAAAGCUUGAGAGCAUCUUCGGAUGCAGAGGCGGCAGCCAUCGGUGGCGCGAUAGUUCCAACGUUCUCAACUAUGACACGCAAAACGCGUGCUCCGUUGUAUGGAGUUUAUCAUG, the “polymerase ribozyme fitness (log ratio)” value was at most -4.2. In the case of GGAUCUUCUCGAUCUAACAAAAAAGACAAAUCUGCCACAAAGCUUGAGAGCAUCUUCGGAUGCAGAGGCGGCAGCUUUCGGUGGCGCGAUAGCGCCAACGAUCUCAACUAUGACACGCAAAACGCGUGCUCCGUUGAAUGGAGUUUAUCAUG, the “polymerase ribozyme fitness (log ratio)” value is reported as -1.35. For GGAUCUUCUCGAUCUAACAAAAAAGACAAAUCUGCCACAAAGCUUGAGAGCAUCUUCGGAUGCAGAGGCGGCAGCUUUCGGUGGCACGAUAGCGCCAACGUUCUCAACUAUGACACGCAAAACGCGUGCUCCGUUGAAUGGAGUUUAUCAUG, the “polymerase ribozyme fitness (log ratio)” value was -0.246. In the case of GGAUCUUCUCGAUCUAACAAAAAAGACAAAUCUGCCACAAAGCUUGAGAGCAUCUUCGGAUGCAGAGGCGGCAGCCAUCGGUGGCGCGAUAGCGCAAACGUUCUCAACUAUGACACGCAAAACGCGUGCUCCGUUGAAUGGAGUUUAUCAUG, the “polymerase ribozyme fitness (log ratio)” value is reported as at most -4.2. For GGAUCUUCUCGAUCUAACAAAAAAGACAAAUCUGCCACAAAGCUUGAGAGCAUCUUCGGAUGCAGAGGCGGCAGCCAUCGGUCGCGCGAUCGCGCCAACGUUCUCAACUAUGACACGCAAAACGCGUGCUCCGUUGAAUGGAGUUUAUCAUG, the “polymerase ribozyme fitness (log ratio)” value was at most -4.2. In the case of GGAUCUUCUCGAUCUAACAAAAAAGACAAAUCUGCCACAAAGCUUGAGAGCAUCUUCGGAUGCAGAGGCGGCAGCUUUCGGUUUCGCGAUAGCGCCAACGUUCUCAACUAUGACACGCAAAAUGCGUGCUCCGUUGAAUGGAGUUUAUCAUG, the “polymerase ribozyme fitness (log ratio)” value is reported as -2.49. In the case of GGAUCUUCUCGAUCUAACAAAAAAGACAAAUCUGCCACAAAGCUUGAGAGCAUCUUCGGAUGCAGAGGCGGCAGCCAUCGGUAGCGCGAUAGCGCCAACGUUCUCAACUAUGACGCGCAAAACGCGUGCUCCGUUGAAUGGAGGUUAUCAUG, the “polymerase ribozyme fitness (log ratio)” value is reported as at most -4.2. With GGAUCUUCUCGAUCUAACAAAAAAGACAAAUCUGCCACAAAGCUUGAGAGCAUCUUCGGAUGCAGAGGCGGCAGCUUUCGGUGGCGCCAUAGCGCCAACGUUCUCAACUAUGACACGCAAAACGCGUGCUCCGUUGAAUGGAGUUUAUCAUG the “polymerase ribozyme fitness (log ratio)” value was at most -4.2. For GGAUCUUCUCGAUCUAACAAAAAAGACAAAUCUGCCACAAAGCUUGAGAGCAUCUUCGGAUGCAGAGGCGGCAGCUUCCGGUGGCGCGAUAGCGCCAACGUUCUCCACUAUGACACGCAAAACGCGUGCUCCGUUGAAUGGAGUUUAUCAUG, the “polymerase ribozyme fitness (log ratio)” value was -1.92.
